# From paper PMC12040169 (PLOS Biology, 2025)
# This is one part of the list.
# Tested on: T1, C. trachomatis L2/434/Bu expressing GFP (CTL2-GFP)
# T1 construct: L2/434/Bu GFP intracellular growth in HeLa cells
# Parameters: species or system HeLa; C. trachomatis total inclusion area by high-content imaging, normalised to DMSO
# Conditions: total inclusion area; 28.5 h, 10 µM; inhibitor
# Method in brief: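 Post-fluorescence-read fixation, DNA staining with Hoechst and high-content imaging; GFP inclusion area and number per well, and nuclei counts, used as proxies for bacterial growth and host viability.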
row,Structure (SMILES),% of control remaining
1,C=CCn1c(SCC(=O)O)nnc1-c1ccc([N+](=O)[O-])cc1 [CBK262736],94.4047
2,COC(=O)C1(Cc2cc(-c3ccc(F)cc3)no2)CCOCC1 [CBK285329],99.409
3,Cc1c(S(=O)(=O)N2CCN(C)CC2)sc2ccc(C(C)C)cc12 [CBK170362],71.8492
4,COc1cccc(C(=O)Nc2nc3ccccc3n2Cc2ccccc2)c1OC [CBK299811],99.1553
5,Cc1nc2ccccc2c(C)c1C(=O)OCc1nc(N)nc(N(C)C)n1 [CBK295627],72.0907
6,O=C(NC1CCCCCC1)c1ccc(COCC(F)(F)C(F)F)cc1 [CBK059012],36.306
7,CN(C)C(=O)CN1CCC2(C/C=C/COc3ccccc3C(=O)NC[C@@H](Cc3ccccc3)NC2=O)CC1 [CBK292185],102.331
8,Cn1cc(Nc2nc(-c3ccc(CCNS(C)(=O)=O)cc3)cs2)cn1 [CBK305065],90.754
9,CC(CC(=O)N1CCC(c2cc3cccnc3[nH]2)CC1)n1cccn1 (centres unmarked) [CBK285036],92.4923
10,CCOc1cc(CNc2nc[nH]n2)cc(Cl)c1OCc1ccccc1F [CBK288088],99.2111
11,CCCc1[nH]nc(O)c1Cc1ccc(Cl)cc1 [CBK075013],107.089
12,Cc1ccc(CSc2nnc(-c3ccc(NC(=O)/C=C/c4ccccc4)cc3)n2C)cc1 [CBK263850],98.129
13,Cc1ccccc1N1CC(C(=O)Nc2cccnc2)CC1=O (centres unmarked) [CBK288138],100.13
14,COc1ccccc1C(=O)Nc1ccccc1C(=O)Nc1ccc(C(=O)O)cc1 [CBK268625],141.961
15,CCN(C(=O)c1cn2c3c(cccc3c1=O)CC2)C1CCOC(C)(C)C1 (centres unmarked) [CBK307332],108.387
16,COc1ccc(S(=O)(=O)N(CCc2ccccc2)CC(=O)O)cc1C [CBK268505],102.851
17,COc1ccc(F)cc1-c1ccccc1CC1(C(=O)NCCc2ccccc2)CCOCC1 [CBK286424],91.7225
18,CC(C)c1ccc(C(C)NC(=O)Cn2cc(C(=O)NC3CCCCC3)ccc2=O)cc1 (centres unmarked) [CBK286097],95.6874
19,Cn1c2ccccc2c2ncn(CCS)c(=O)c21 [CBK288412],87.4208
20,Cc1nnc(S)n1CC(=O)n1c2c(c3ccccc31)CCCC2 [CBK266244],95.8871
21,Cc1[nH]c(C(=O)NCCc2ccco2)c(C)c1C(=O)OC(C)C [CBK295180],119.357
22,Cc1nccn1CCN(C)C(=O)C1CC2C=CC1C21CC1 (centres unmarked) [CBK282084],93.904
23,CCn1c(C(O)c2ccc(OCc3ccccc3)cc2)nc2ccccc21 (centres unmarked) [CBK263458],110.587
24,O=C(Nc1ccccc1)N1C[C@@H]2OCC(=O)N(Cc3ccc(F)cc3)[C@@H]2C1 [CBK289683],95.6939
25,O=C(NCCc1c[nH]cn1)Nc1cccc(C(F)(F)F)c1 [CBK269822],82.5109

row,Structure (SMILES),% of control remaining
1,Cc1ccc(NC(=O)CSc2nnc(N)[nH]2)cc1 [CBK034301],90.9572
2,CCOc1ccc(S(=O)(=O)N2CCCN(Cc3ccc(F)cc3F)CC2)c2cccnc12 [CBK062757],78.4846
3,COc1cc(OC)nc(N2CCN(c3nccnc3NS(=O)(=O)C3CC3)CC2)n1 [CBK048698],89.469
4,NS(=O)(=O)c1ccc(NC(=O)c2cc3c(n(-c4ccccc4)c2=O)CCCC3=O)cc1 [CBK266467],122.678
5,COc1cc(CN2CCNCC2)c2ccn(S(=O)(=O)c3ccccc3C#N)c2c1 [CBK144486T],79.5748
6,CS(=O)(=O)N1CC2(CCN(CC3COc4ccccc4O3)CC2)c2ccccc21 (centres unmarked) [CBK115461T],70.3252
7,CCOC(=O)C1CCCN(C(=O)Cn2c(C)nc3ccccc3c2=O)C1 (centres unmarked) [CBK306150],57.6634
8,Cc1cccc(C(=O)Nc2nnc(-c3ccncc3)o2)c1 [CBK287430],104.811
9,O=C(Nc1ccc(F)cc1)c1ccccc1NS(=O)(=O)c1ccc(Br)cc1 [CBK045438],54.1873
10,Cc1cc(C[C@@H]2COC[C@H]2NCc2ccccc2C(F)(F)F)on1 [CBK285464],108.74
11,O=C(Nc1ccccc1)Nc1ccc([N+](=O)[O-])cc1 [CBK016975],78.5419
12,O=C1CN(C(=O)Nc2ccc(Cl)cc2)CCN1 [CBK155861],100.286
13,CCn1nc(-c2ccc(Cl)cc2)c2c(=O)n(C)c(=O)[nH]c21 [CBK287845],81.1691
14,CC(C)C(=O)Nc1cc2cccnc2nc1-c1ccc(N(C)C)cc1 [CBK073650],106.594
15,CCN(CCCNC(=O)c1cc(-c2cccnc2)nc2ccccc12)c1cccc(C)c1 [CBK294465],105.871
16,COc1ccc(CN2CCN(c3nccnc3OC3CCCCC3)CC2)cc1 [CBK082830T],84.119
17,O=c1cc(O)c2c(=O)[nH]c(=O)n(-c3ccccc3)c2[nH]1 [CBK287907],107.826
18,O=c1[nH]c2ccccc2n1CCCN1CCN(c2nccnc2Oc2ccc(F)cc2)CC1 [CBK083027T],77.0119
19,COc1ccc(Br)cc1S(=O)(=O)Nc1ccc(C(=O)O)cc1 [CBK034047],86.743
20,O=[N+]([O-])c1cc(/C=N/Nc2nnn[nH]2)ccc1N1CCOCC1 [CBK262199],99.422
21,O=C(Nc1cccnc1)c1cc(S(=O)(=O)N2CCCCC2)c(Cl)cc1Cl [CBK264567],92.7727
22,Cc1noc(NS(=O)(=O)c2ccc(NC(=O)C3COc4ccccc4O3)cc2)c1C (centres unmarked) [CBK264923],85.6458
23,COc1cc(/C=C/c2nc(O)c([N+](=O)[O-])c(=O)[nH]2)ccc1OCC(=O)N1CCOCC1 [CBK267168],113.271
24,O=C(CSc1ccc(Cl)cc1)NNC(=O)c1cccc([N+](=O)[O-])c1 [CBK268384],93.9352
25,S=c1ccc(N/N=C/C2CC=CCC2)n[nH]1 (centres unmarked) [CBK018655],91.695
